Whole data set: some 110,000 compounds, median “z-score” near -0.1, cut for the highest 2% near 2. The list shows a part of the results. Activity calls are given as the source filed them.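 Rule for the calls: active = z-score in the third read window above 3 or below -3; inactive = the rest.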
Biological target: Metabotropic glutamate receptor 8 (Rattus norvegicus) (UniProt P70579)
Experiment: mGluR8 Gi/Go-coupled signaling modulation – cell-based, rat, thallium flux, HTS, primary screen (AID 488969)
Conditions: HEK293 rat mGluR8, GIRK (G protein-gated inwardly rectifying potassium channel) thallium flux, FluoZin2; at 10 µM; stronger effect = higher value; submaximal glutamate (EC20) added with thallium

Sequence of UniProt P70579 (P70579 whole entry, looked up): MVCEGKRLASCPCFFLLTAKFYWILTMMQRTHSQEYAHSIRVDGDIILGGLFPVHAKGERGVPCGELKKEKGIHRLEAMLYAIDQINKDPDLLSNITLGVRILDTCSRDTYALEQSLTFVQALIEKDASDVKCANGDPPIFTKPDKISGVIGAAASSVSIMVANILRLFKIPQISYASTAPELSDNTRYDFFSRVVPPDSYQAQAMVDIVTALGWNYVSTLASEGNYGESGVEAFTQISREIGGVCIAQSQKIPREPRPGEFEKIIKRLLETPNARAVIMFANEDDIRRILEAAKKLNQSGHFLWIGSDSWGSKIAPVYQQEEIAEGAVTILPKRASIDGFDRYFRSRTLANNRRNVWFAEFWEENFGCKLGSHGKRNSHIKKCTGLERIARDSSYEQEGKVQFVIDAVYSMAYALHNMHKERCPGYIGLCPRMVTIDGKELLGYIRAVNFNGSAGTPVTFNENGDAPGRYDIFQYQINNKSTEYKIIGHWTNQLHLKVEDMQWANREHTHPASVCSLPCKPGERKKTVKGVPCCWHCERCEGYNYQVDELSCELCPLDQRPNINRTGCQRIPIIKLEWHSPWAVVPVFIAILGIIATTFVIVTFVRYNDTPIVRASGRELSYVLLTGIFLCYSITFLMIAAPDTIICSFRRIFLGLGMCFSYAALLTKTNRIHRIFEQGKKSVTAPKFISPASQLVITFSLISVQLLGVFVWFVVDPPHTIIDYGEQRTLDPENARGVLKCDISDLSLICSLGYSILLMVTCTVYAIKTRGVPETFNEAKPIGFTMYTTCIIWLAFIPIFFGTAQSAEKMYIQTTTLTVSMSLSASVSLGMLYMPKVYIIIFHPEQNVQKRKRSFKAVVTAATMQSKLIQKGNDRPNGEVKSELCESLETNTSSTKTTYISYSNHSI

| SMILES | z-score |
| --- | --- |
| O=C(CSc1nnnn1-c1cccnc1)NCc1cccs1 | 0.883 |
| Cc1occc1C(=O)NCCc1ccc(Cl)cc1 | -0.116 |
| Nc1nc(-c2ccc3c(c2)NC(=O)CO3)cs1 | -0.208 |
| Cc1ccc(C(=O)N/N=C/c2ccc(S(=O)(=O)O)o2)c(Cl)c1 | -0.207 |
| COC(=O)CC1=Nc2ccccc2NC(=O)C1 | -0.298 |
| CCCCCC(O)(CCCCC)C(=O)NNc1ccccc1 | -0.0829 |
| CCCCCCC(=O)Nc1cc2c(C)cc(=O)oc2cc1C | -0.348 |
| CCn1c(SCC(=O)Nc2nc(C)cs2)nnc1-c1ccco1 | -0.791 |
| COc1ccc(Cl)cc1C(=O)OCC(=O)NC(=O)c1cccn1C | -0.0967 |
| CCOC(=O)c1cc(-c2ccccc2)n(CC(=O)Nc2ccc(OCC)cc2)c1C | -0.158 |
| COc1cc(S(=O)(=O)n2nc(C)cc2C)c(OC)cc1Cl | 0.582 |
| CCC(C)c1ccc(OCCn2cc(/C=N/NC(=O)CSc3nnc(C)s3)c3ccccc32)cc1 (configuration not stated) | 0.38 |
| CCOc1ccc(OCc2cccc(C(=O)N/N=C/c3cccnc3)c2)cc1 | -0.0967 |
| Cc1c(N2C(=O)CS/C2=N\N=C\c2ccc(Br)cc2)c(=O)n(-c2ccccc2)n1C | -0.286 |
| COc1ccc(OC)c(C2NC(=O)c3sc(=S)n(-c4ccccc4)c3N2)c1 (configuration not stated) | 0.229 |
| COc1ccc2[nH]c(=O)c(CN(Cc3nnnn3CCc3ccccc3)CC3CCCO3)cc2c1 (configuration not stated) | -0.717 |
| Cc1cc[n+](CC(=O)c2cccs2)cc1 | -0.039 |
| Cc1ccc(CSc2nnc(Nc3ccc(C)cc3)s2)cc1 | 0.48 |
| CC1CN(S(=O)(=O)c2ccc(NC(=O)CCN3C(=O)c4ccccc4C3=O)cc2)CC(C)O1 (configuration not stated) | -0.453 |
| CCN1CCc2c(sc(N)c2C(N)=O)C1 | -0.0945 |
| COc1cc(/C=N/Nc2ccccc2)ccc1OC(=O)c1cccs1 | -0.425 |
| COc1ccc(NC(=O)CN2CCC(C(N)=O)CC2)cc1 | 0.665 |
| NC(=S)Nc1cnc2ccccc2c1 | -0.176 |

| SMILES | z-score |
| --- | --- |
| COc1ccc(-n2nc([N+](=O)[O-])c(=NCCc3ccc(Cl)cc3)n2O)cc1 | -2.2 |
| COC(=O)C1=C(C)N(c2ccc(F)c(Cl)c2)C(=O)C1 | 1.14 |
| O=C(c1cc2ccccn2n1)N1CCN(c2ccccn2)CC1 | -0.0834 |
| Cc1ccccc1-n1nnnc1SC(C)C(=O)NC1CCCc2ccccc21 (configuration not stated) | -0.733 |
| Cc1nnc(NC(=O)Nc2ccc(Cl)c(Cl)c2)s1 | -0.096 |
| COCCN(CC(=O)Nc1ccccc1C)S(=O)(=O)c1ccc(S(=O)(=O)N2CCCC2)cc1 | 0.545 |
| Cc1cc(NCCCn2ccnc2)n2ncc(-c3ccc(Cl)cc3)c2n1 | -0.224 |
| CCn1c(=O)c(C(=O)NCCCO)c(O)c2ccccc21 | active: 3.51 |
| O=c1[nH]c2cc3c(cc2cc1CN(Cc1ccccc1)Cc1nnnn1Cc1ccco1)OCCO3 | -0.277 |
| COC(=O)c1ccccc1NC(=O)c1ccc(COc2ccc(C)c(C)c2)o1 | -0.951 |
| COc1ccc(CN2CCC(=O)NC2=O)cc1 | 0.00959 |
| Cc1[nH]c2ccccc2c1C(=O)CSc1nc2ccccc2[nH]1 | -0.344 |
| CCC(C)(C)n1nnnc1C(c1ccncc1)N1CCC(Cc2ccccc2)CC1 (configuration not stated) | -0.0317 |
| CCOC(=O)CSc1cc(=O)n(C)c2cc(Cl)ccc12 | -2.26 |
| O=C(c1ccc(CS(=O)(=O)c2ccc(Br)cc2)o1)N1CCOCC1 | -0.0262 |
| O=C(NC1CC1)c1ccc(CS(=O)(=O)c2c(Cl)cccc2Cl)o1 | -0.443 |
| Cc1ccc(Nc2nc(N)nc(CN3CCN(Cc4ccc5c(c4)OCO5)CC3)n2)cc1 | 0.167 |
| Cc1cccc(N=C2NC(=O)/C(=C/c3cccs3)S2)c1 | 0.118 |
| CC(C)CCNC(=O)C(c1cccnc1)N(Cc1ccccc1)C(=O)Cn1nnc2ccccc21 (configuration not stated) | -0.0344 |
| COC(=O)CSc1nnc(CNC(=O)c2ccccc2OC)n1-c1ccc(OC)cc1 | -0.0857 |
| O=C(COC(=O)CCCN1C(=O)c2cccc3cccc(c23)C1=O)Nc1ccc(Cl)cc1 | -0.14 |
| S=c1[nH]nc(-c2ccco2)n1Cc1ccccc1 | 0.271 |
| COc1cc(C(=O)OCCn2c(=O)c3c(ncn3CCN(C)C)n(C)c2=O)cc(OC)c1OC | -0.222 |

| SMILES | z-score |
| --- | --- |
| CCCN(CCC)c1nc2ccccc2nc1C(C#N)C(=O)OC(C)COC (configuration not stated) | active: -3.86 |
| Cc1ccc(N2C(=O)c3ccccc3C2Nc2ccccc2)nc1 (configuration not stated) | -0.424 |
| Cc1ccc(C)c(Nc2ncnc(N)c2[N+](=O)[O-])c1 | 0.14 |
| COC(=O)c1[nH]c2ccccc2c1NC(=O)CN1CCN(c2cccc(Cl)c2)CC1 | -1.61 |
| Cc1cccc(C)c1OC(=O)CSc1nnc(-c2ccccc2)o1 | -0.181 |
| C(=N\n1c2ccccc2c2ccccc21)/c1ccccc1 | 0.219 |
| CC(=O)c1cc(C#N)c(SCCC(C)C)nc1C | -0.563 |
| COCCCN1C(=O)C(=O)/C(=C(/O)c2ccccc2)C1c1ccc(N(C)C)cc1 (configuration not stated) | -0.27 |
| O=C(NC1(C(F)(F)F)NC(=O)N(c2ccccc2F)C1=O)c1ccncc1 (configuration not stated) | -0.16 |
| COc1ccc(-c2nc(CCNC(=O)c3cccs3)cs2)cc1 | -0.332 |
| COc1cc(OC)c(C(=O)NC2CCCCCC2)cc1OC | -0.172 |
| O=C(c1ccco1)N1CCN(C(=O)c2ccccc2OC(=O)C23CC4CC(CC(C4)C2)C3)CC1 | -0.229 |
| CCOC(=O)c1cc2c(=O)n3ccccc3nc2n(CCCOC)c1=NC(C)=O | -0.197 |
| COc1cc(SC)ccc1C(=O)NCCOc1c(C)cc(C)cc1C | -0.191 |
| CCCSc1nc(=O)n2cccc(C)c2n1 | -0.6 |
| Cc1cccc(C)c1N=C1NN=C(c2ccccc2F)CS1 | 0.0768 |
| CCc1ccc(-c2csc(-c3c[nH]c4ccccc34)n2)cc1 | 0.735 |
| CCc1ccccc1NC(=O)C(C)n1nc([N+](=O)[O-])c(Br)c1C (configuration not stated) | -0.169 |
| O=C(NCc1ccc2c(c1)OCO2)c1ccc(Cl)c(S(=O)(=O)N2CCOCC2)c1 | -0.275 |
| COc1ccc(C(=O)Cn2c(NCCO)nc3ccccc32)cc1OC | 0.0145 |
| CCCn1c2ccccc2c2nnc(SCC(=O)Nc3cc(C)on3)nc21 | 0.531 |
| CCc1ccccc1NC(=O)CN(C)C(=O)CSc1nn(-c2ccccc2)c(=S)s1 | -0.632 |
| CCC(Sc1nc(=O)cc(N)n1-c1cccc(C)c1)C(=O)Nc1cc(C)on1 (configuration not stated) | -0.411 |

| SMILES | z-score |
| --- | --- |
| O=S(=O)(NCCSCc1ccc(Cl)cc1Cl)c1ccc2c(c1)OCCO2 | -0.123 |
| O=C1CC(SC(=Nc2ccccc2)Nc2ccccc2)C(=O)N1c1ccc(Cl)cc1 (configuration not stated) | -0.0248 |
| COc1ccccc1Nc1ncnc2ccc(C)cc12 | 1.32 |
| Oc1ccc(/C=N/Nc2cc(N3CCCC3)nc(N3CCCC3)n2)cc1 | 0.0321 |
| COc1ccccc1OCCCCOc1ccccc1F | -0.202 |
| Cc1occc1C(=O)NNC(=S)NCC(C)C | 0.239 |
| O=C(Nc1ccccc1-c1nc2ccccc2s1)c1cccnc1Cl | -0.00366 |
| O=C(N/N=C/c1ccc2c(c1)OCO2)C1COc2ccccc2O1 (configuration not stated) | 0.435 |
| CC(=O)NC1(C(F)(F)F)C(=O)N(Cc2ccccc2)C2=C1C(=O)CC(C)(C)C2 (configuration not stated) | -0.139 |
| CSc1nc(-c2ccc(Cl)cc2)nn1S(=O)(=O)c1ccccc1 | 0.244 |
| O=C(CSc1ncc(C(F)(F)F)cc1Cl)N1CCN(S(=O)(=O)c2ccc(Cl)cc2)CC1 | 0.124 |
| Cc1ccc2c(c1)C=CC(C#N)N2C(=O)c1ccccc1 (configuration not stated) | -0.641 |
| COc1ccccc1CNC(=O)c1cccc(N(C)C)c1 | 0.0341 |
| Cc1cccc(C(=O)Nc2ccccc2C(=O)OCC(=O)Nc2ccc(C#N)cc2)c1 | 2.11 |
| COC(=O)c1cc(OC)c(OC)cc1NCC(=O)Nc1ccc(OC)c(OC)c1 | -0.419 |
| Cc1nnc(SCC(=O)Nc2ncc(Cc3ccc(F)cc3)s2)n1N | 1.83 |
| COc1ccc(-c2cn3ccccc3n2)cc1[N+](=O)[O-] | 0.823 |
| Cc1ccnc2nc(C(=O)OCCOc3cccc(Br)c3)nn12 | -0.379 |
| Nc1nnc(C(=O)c2ccccc2N)s1 | active: 4.29 |
| Cc1cccc(-c2nnn3c2nc(NCCc2ccc(S(N)(=O)=O)cc2)c2ccccc23)c1 | -0.272 |
| C=COCCNC(=O)C1CC(=O)N(c2ccc(C)cc2)C1 (configuration not stated) | 1.08 |
| C/C(=N\NC(=O)COc1ccccc1)c1cccs1 | -0.019 |
| Cc1ccc(S(=O)(=O)N2CCCC2)cc1[N+](=O)[O-] | -0.161 |

| SMILES | z-score |
| --- | --- |
| CC1CCN(C(=O)c2ccc(COc3ccccc3Cl)o2)CC1 | -0.787 |
| O=C(Nc1ccccc1Cl)c1cccc(NS(=O)(=O)c2ccccc2)c1 | -0.436 |
| Cc1cc(C(=O)COc2ncnc3sccc23)c(C)n1C1CC1 | -0.349 |
| COc1ccc(-c2noc(-c3ccccc3-c3ccccc3)n2)cc1OC | 0.544 |
| COc1ccc(S(=O)(=O)Nc2nnc(CC(C)C)s2)cc1 | -0.287 |
| Cc1ccc2nc(-c3ccccn3)oc2c1 | 0.326 |
| CCCCC(=O)NC(c1ccc(OC)c(OC)c1)c1c(O)ccc2ccccc12 (configuration not stated) | -0.0347 |
| C/C(=N\Nc1nc(N)cc(Cl)n1)c1cccc([N+](=O)[O-])c1 | -0.101 |
| CCc1nnc(NC(=O)C2CCC2)s1 | -0.429 |
| COc1ccc(N2CCN(C(=O)c3ccc(NS(=O)(=O)c4ccccc4)cc3)CC2)cc1 | -0.449 |
| CCOC(=O)C1C(c2cccs2)NC(=O)N(C)C1(O)C(F)(F)F (configuration not stated) | -0.437 |
| CC(C)N1C(=O)C2C(C(=O)NCc3ccccc3)C3C=CC2(O3)C1C(=O)NC(C)(C)C (configuration not stated) | -0.153 |
| CC(=O)N(C)c1ccc(OCC(O)COc2ccc(N(C)C(C)=O)cc2)cc1 | -0.144 |
| CCc1ccc(NC(=O)C/C(C)=N/NC(=O)OCc2ccc(OC)cc2)cc1 | -0.139 |
| CC(NC(=O)C1C(=O)N(CCO)C2(C)CC1c1ccccc1O2)c1ccccc1 (configuration not stated) | -0.22 |
| O=C(CN1C(=O)NC2(CCCCC2)C1=O)Nc1ccc(N2CCOCC2)cc1 | 0.0382 |
| COc1ccccc1S(=O)(=O)Cc1ccc(C(=O)NCCN2CCCC2)o1 | 0.238 |
| O=C(NCc1ccccn1)c1coc(=O)c(Br)c1 | -1.32 |
| Cc1cc(-c2n[nH]c(=S)n2Cc2ccco2)n(C)n1 | -0.171 |
| Cc1cc(NCCCN(C)C)n2nc(-c3cccs3)cc2n1 | -0.0105 |
